Experimental data: the RNAGym collection of RNA variant scans (doi:10.7554/elife.90254)
The source gives no read counts; variants with many changes may rest on few reads.

B1: LINE1-mini (parent)
chain: GGCAGAGCUCAACACAGCGUGGCAAAGUGGCUGUGGCUAGACUGCC

Variants of: B1
Assay: self-cleavage, relative activity (ratio to wild type); higher = more cleavage; in vitro, sequencing; the parent is a self-cleaving ribozyme

| Variant | self-cleavage |
| --- | --- |
| C10U A26U A41G | 0.02 |
| C10U A11U G36U C37A | 0.02 |
| C10U C15A G17A G27C U28A | 0.07 |
| C10U G21U A24U A26C C46G | 0.3 |
| A11C A12C C18G C42U C46G | 0.01 |
| C10U C15U C18A | 0.07 |
| C10U G44C C45G | 0.02 |
| C10U A16U U32G | 0.07 |
| C10U C23U G40C C46A | 0 |
| C10U U20C C37G | 0.01 |
| C10U A14U U20A | 0.21 |
| C10U A16U U38A A41U | 0 |
| C10U G22A U28A | 0.16 |
| A11C C13G G17U A26C G33U G36C G40A A41C | 0.01 |
| C10U A12U G35A | 0.17 |
| C10U G19A G35U C45A | 0 |
| A11C A25G U43A | 0.01 |
| C10U U34G U38A C45U | 0.04 |
| C10U A26G G29U | 0.28 |
| A11C C13A G19U A24G | 0 |
| C10U C18G C37G | 0.05 |
| C10U A14U G29A U32C | 0.07 |
| A11C A12U G17A A26C U32A G35U G36C | 0.01 |
| C10U C23A G36U | 0.01 |

| Variant | self-cleavage |
| --- | --- |
| A11C A14C G19U | 0 |
| A11C A16U C31U G33U | 0.01 |
| A11C A12U U34G A41G | 0.01 |
| C10U G17U G21U | 0.81 |
| C10U C15A G29C G40U | 0.01 |
| C10U G30U C37U | 0.04 |
| C10U C18A G19U | 0.42 |
| C10U G17C G21A | 0.81 |
| C10U G27U G36A A39C | 0.05 |
| C10U G21C G22C | 0.02 |
| C10U G17C C18U G40U U43G | 0.02 |
| C10U C15A G30C | 0.03 |
| A11C C13U G33U A41C C46G | 0.01 |
| C10U C23U G27C | 0.2 |
| C10U A25U A26G C45U | 0.1 |
| A11C A24G C37U C45A | 0.01 |
| A11C A12G A16C C42G | 0.02 |
| C10U U32A C42G U43A | 0.02 |
| C10U C31G G33C U38G | 0.01 |
| C10U G30C C42A | 0.08 |
| C10U G30A G35U C45U | 0.03 |
| C10U C18U A25G U43A | 0.01 |
| A11C A12C G40A G44U | 0.01 |
| C10U A14C G27C C46U | 0.01 |

| Variant | self-cleavage |
| --- | --- |
| C10U G19A G21C | 0.19 |
| A11C A41G C42A | 0.01 |
| C10U C23U C37A A39U | 0.01 |
| A11C A25U G27A | 0.07 |
| C10U A14U G21U U32G A39C C42A C46U | 0.01 |
| C10U A12G G22C | 0.01 |
| C10U A11U U32C | 0.04 |
| C10U U20A A25U U34G | 0.31 |
| C10U A26C G36U | 0 |
| C10U A14C C18A G40C | 0.01 |
| C10U A14U G22C G29U | 0.22 |
| C10U A26G G40U | 0.03 |
| C10U U20A A41U | 0.02 |
| C10U G36U C42G | 0 |
| C10U C15A A26G | 0.06 |
| C10U A26C G27U C42U | 0.11 |
| C10U G30U G35U C37A | 0.02 |
| A11C A12C C45A | 0.01 |
| A11C A41C C42A | 0.03 |
| A11C A14U G21U G36U | 0.02 |
| C10U C15G U20C U38A | 0.05 |
| C10U U28G G29C G35U | 0.03 |
| C10U C13G C18U G36C | 0.09 |
| C10U C13G C42U C46G | 0.04 |

| Variant | self-cleavage |
| --- | --- |
| C10U A12C A14C C15U | 0.04 |
| A11C C13A C23A A39G C42U | 0 |
| C10U A14C C37A | 0.05 |
| A11C A24U G44C | 0.03 |
| C10U A14U C23G U32G C46U | 0.04 |
| A11C A12C C13G G29C G30U | 0 |
| A11C A24C C46G | 0.01 |
| C10U U28C U38A C45U | 0.01 |
| A11C A14G G22A G30U U32C | 0.02 |
| C10U C23U G30U G33C | 0.04 |
| C10U G30C G35U | 0.04 |
| A11C A12C G22C | 0 |
| A11C C13U G17U A25C U28A C42U C45G | 0 |
| C10U C18A G33A | 0.01 |
| A11C A16G G17A A25U | 0.01 |
| C10U G17A U20G G36C | 0.02 |
| C10U G19A U34A G40C C45U | 0.03 |
| A11C A14U G17C G33C | 0 |
| C10U G27U G36C A41C | 0.05 |
| C10U C23G A25G C42U | 0.24 |
| C10U G17U U28G G29U | 0.04 |
| C10U C18G A26C U43A | 0.02 |
| C10U A16G A26C U38C U43A | 0.01 |
| A11C A16U C18U | 0.01 |

| Variant | self-cleavage |
| --- | --- |
| C10U A26C G27A U32G C42U | 0.06 |
| C10U A16C C23G G36A | 0 |
| C10U G29U G30A C45A | 0.11 |
| C10U A25G A39G U43A C46A | 0.03 |
| C10U C13A G19C | 0.03 |
| C10U U32G A41C | 0.02 |
| C10U C23A A24U G36U A41C C42U U43G | 0.01 |
| A11C A25C A41U C46G | 0 |
| C10U A26C G35A | 0.08 |
| C10U C31G A39U A41C C42A | 0.03 |
| C10U U20C G40U | 0.04 |
| C10U G29U G44U | 0 |
| A11C A12C G44C | 0.03 |
| A11C A12G A16G G35C | 0.01 |
| C10U A16G U20C | 0.13 |
| C10U G19C G29C | 0.07 |
| C10U G21U G40U | 0.02 |
| C10U G29C G35C | 0.02 |
| A11C A25U G44A | 0.08 |
| A11C A12G G30C | 0.03 |
| C10U A12G C13U G35U | 0.03 |
| C10U C23U G44A | 0.08 |
| A11C A25C A39C | 0 |
| C10U C15U G30C | 0.07 |

| Variant | self-cleavage |
| --- | --- |
| C10U G40A A41C | 0.03 |
| A11C A12U C15U G19A | 0.03 |
| C10U U38G C45U | 0.02 |
| C10U A14C C15U A24C G27U | 0.1 |
| C10U G35U U43A | 0.05 |
| C10U U28A U43C | 0.02 |
| A11C A16U G33A C42G | 0.01 |
| A11C A14U G29U | 0 |
| C10U C13A A14U C31A | 0.21 |
| A11C C13U C37A C42A | 0.01 |
| C10U A41G C42A | 0.03 |
| C10U C13U U38A | 0.02 |
| C10U C37U U43G | 0 |
| A11C A24G A41U | 0.07 |
| C10U C15U C18A G40A G44A | 0.03 |
| A11C C13U G21C A25U | 0.02 |
| C10U C13G A25U G40C | 0.02 |
| C10U G36U C37A A39G A41C | 0 |
| C10U U20C U34A | 0.08 |
| C10U A11U G21U U34G G35U G40U | 0.01 |
| C10U G29A G36U | 0.02 |
| C10U G22C G35U | 0.06 |
| C10U U28C U32A C42A C45A | 0.04 |
| A11C C13A G27C | 0.01 |

| Variant | self-cleavage |
| --- | --- |
| C10U U20C C31U U34A G36C C42G G44C | 0.01 |
| C10U G17U U38C | 0.31 |
| C10U C15U C23A A24U A26G U32G C42G | 0.08 |
| C10U G17A G22C | 0.02 |
| C10U C15U G35A C42U U43C | 0.02 |
| C10U A24C A25U G27U C37A | 0.02 |
| C10U G27A U32C C42A | 0.03 |
| C10U G21A G22C | 0.3 |
| C10U G27U U28G | 0.14 |
| A11C A14G C23G A25U G35C U43A | 0.01 |
| C10U A16C U20C | 0.08 |
| A11C A12G G29C | 0.01 |
| A11C A12G G29U | 0.06 |
| C10U C15G C18A G33U C46G | 0.04 |
| C10U C23U U28G A41G | 0.02 |
| C10U C15G G29A U32G G36A A41G | 0.07 |
| C10U A14C A26C G30C | 0.03 |
| C10U C13G C15A A24C | 0.06 |
| C10U A14U G19U U34G | 0.21 |
| C10U A24G G30U G33U | 0.02 |
| C10U C13A C37G C42U | 0.05 |
| C10U C15U C37A | 0.05 |
| A11C A12U G19C U28G | 0 |
